From PMC7139218, “Structural Basis for Rab8a Recruitment of RILPL2 via LRRK2 Phosphorylation of Switch 2” (Structure(London, England:1993), 2020)
No constants are given. Whether binding was seen depends on the method and setting. For part of these data: In cells and extracts the contact can be indirect. Some results given as binding are weak or reduced against the parent protein; the word gives no strength. For part of these data: Tags and fused reporters may be left off the sequences shown.

Protein sequences, listed by entry. Tags and fused reporters are not part of them. Lines headed by an entry give the natural chain unless they say otherwise; changes in a name come on top. Chains listed by the source or under a name are the forms on record and can include a tag or linker. Residues count along the entry.
UniProt Q99104, residues 1462-1853: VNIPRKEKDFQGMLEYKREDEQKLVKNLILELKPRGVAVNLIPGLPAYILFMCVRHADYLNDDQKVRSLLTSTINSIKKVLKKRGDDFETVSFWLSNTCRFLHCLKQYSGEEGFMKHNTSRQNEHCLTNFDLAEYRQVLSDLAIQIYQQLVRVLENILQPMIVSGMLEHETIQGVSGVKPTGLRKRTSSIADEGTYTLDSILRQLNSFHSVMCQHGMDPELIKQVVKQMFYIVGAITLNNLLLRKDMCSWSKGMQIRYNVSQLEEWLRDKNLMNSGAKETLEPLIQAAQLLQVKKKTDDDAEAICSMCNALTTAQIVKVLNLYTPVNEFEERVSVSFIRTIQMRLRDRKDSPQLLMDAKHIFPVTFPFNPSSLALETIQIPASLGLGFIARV
UniProt P61006: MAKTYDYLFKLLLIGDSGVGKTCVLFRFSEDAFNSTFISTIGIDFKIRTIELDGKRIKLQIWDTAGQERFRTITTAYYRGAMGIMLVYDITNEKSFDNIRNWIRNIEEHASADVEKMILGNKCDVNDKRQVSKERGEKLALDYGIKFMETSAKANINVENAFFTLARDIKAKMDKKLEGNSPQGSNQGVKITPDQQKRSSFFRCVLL
non-phosphorylated Rab8a(GTP), residues 1-181, Q67L (P61006, form named): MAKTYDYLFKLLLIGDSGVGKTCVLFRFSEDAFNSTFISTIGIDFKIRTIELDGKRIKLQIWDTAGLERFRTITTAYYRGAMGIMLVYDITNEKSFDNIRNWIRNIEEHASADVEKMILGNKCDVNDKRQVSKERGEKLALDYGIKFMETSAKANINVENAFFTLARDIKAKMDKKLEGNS
UniProt P61026: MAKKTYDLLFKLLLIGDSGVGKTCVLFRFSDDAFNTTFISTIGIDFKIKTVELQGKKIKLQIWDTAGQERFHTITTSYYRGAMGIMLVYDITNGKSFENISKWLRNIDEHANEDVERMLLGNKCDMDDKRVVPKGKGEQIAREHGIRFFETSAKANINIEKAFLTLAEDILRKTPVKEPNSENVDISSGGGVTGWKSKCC

Key:
[1] = target: T1, RILPL2-GFP WT (full length) (human) (UniProt Q969X0); test: co-IP; HEK293 cells co-expressing Flag-LRRK2 (R1441G or Y1699C), HA-Rab and GFP-tagged effector, no MLi-2; GFP fusion precipitated with GFP binder Sepharose, 1 h, washed in 50 mM Tris-HCl pH 7.5, 150 mM NaCl; immunoblot
T1 sequence: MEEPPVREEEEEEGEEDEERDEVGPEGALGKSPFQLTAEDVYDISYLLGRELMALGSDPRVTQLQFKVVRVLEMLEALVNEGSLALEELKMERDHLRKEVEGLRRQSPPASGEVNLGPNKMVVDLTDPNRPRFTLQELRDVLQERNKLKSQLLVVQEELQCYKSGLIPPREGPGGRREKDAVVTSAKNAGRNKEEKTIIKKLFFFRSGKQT

JIP3-GFP (full length) [2] = target: T2, JIP3-GFP (full length) (UniProt Q9UPT6); test: co-IP; as a7, but cells treated with the LRRK2 inhibitor MLi-2 (100 nM) for 90 min before lysis
T2 sequence: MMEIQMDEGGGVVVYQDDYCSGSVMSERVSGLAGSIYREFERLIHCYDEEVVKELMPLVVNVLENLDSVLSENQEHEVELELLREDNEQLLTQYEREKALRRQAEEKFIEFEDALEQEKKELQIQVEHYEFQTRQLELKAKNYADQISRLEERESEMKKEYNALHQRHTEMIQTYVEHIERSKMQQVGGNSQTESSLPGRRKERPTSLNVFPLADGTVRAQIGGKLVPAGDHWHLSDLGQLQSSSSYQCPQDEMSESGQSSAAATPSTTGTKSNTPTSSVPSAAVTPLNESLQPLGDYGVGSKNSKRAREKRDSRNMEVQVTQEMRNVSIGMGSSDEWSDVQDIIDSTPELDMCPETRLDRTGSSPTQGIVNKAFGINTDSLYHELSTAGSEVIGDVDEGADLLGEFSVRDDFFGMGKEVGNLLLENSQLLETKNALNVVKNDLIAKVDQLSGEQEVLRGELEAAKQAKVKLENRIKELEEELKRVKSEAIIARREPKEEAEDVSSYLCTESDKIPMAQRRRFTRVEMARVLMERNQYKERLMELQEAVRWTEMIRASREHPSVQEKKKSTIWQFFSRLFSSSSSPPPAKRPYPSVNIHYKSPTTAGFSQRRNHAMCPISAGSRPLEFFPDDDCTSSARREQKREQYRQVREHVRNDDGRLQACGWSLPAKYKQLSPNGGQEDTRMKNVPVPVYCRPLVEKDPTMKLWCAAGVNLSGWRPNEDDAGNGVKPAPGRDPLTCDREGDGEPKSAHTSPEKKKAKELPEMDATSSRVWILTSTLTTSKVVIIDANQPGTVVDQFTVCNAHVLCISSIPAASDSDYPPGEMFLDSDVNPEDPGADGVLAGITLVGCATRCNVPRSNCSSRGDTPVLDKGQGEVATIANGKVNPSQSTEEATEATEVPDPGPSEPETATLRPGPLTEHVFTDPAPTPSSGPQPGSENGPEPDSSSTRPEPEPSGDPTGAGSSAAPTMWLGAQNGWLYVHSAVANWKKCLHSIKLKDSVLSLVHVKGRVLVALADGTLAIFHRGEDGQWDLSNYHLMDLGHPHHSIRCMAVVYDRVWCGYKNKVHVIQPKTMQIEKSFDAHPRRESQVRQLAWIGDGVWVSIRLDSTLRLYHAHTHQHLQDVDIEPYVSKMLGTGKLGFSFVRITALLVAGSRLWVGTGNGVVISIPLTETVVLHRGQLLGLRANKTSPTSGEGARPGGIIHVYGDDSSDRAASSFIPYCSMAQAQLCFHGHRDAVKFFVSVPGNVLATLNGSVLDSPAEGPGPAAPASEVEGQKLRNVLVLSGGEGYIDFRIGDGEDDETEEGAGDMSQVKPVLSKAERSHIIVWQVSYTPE

JIP4-GFP (full length) [3] = target: T3, JIP4-GFP (full length) (UniProt O60271); test: as above
T3 sequence: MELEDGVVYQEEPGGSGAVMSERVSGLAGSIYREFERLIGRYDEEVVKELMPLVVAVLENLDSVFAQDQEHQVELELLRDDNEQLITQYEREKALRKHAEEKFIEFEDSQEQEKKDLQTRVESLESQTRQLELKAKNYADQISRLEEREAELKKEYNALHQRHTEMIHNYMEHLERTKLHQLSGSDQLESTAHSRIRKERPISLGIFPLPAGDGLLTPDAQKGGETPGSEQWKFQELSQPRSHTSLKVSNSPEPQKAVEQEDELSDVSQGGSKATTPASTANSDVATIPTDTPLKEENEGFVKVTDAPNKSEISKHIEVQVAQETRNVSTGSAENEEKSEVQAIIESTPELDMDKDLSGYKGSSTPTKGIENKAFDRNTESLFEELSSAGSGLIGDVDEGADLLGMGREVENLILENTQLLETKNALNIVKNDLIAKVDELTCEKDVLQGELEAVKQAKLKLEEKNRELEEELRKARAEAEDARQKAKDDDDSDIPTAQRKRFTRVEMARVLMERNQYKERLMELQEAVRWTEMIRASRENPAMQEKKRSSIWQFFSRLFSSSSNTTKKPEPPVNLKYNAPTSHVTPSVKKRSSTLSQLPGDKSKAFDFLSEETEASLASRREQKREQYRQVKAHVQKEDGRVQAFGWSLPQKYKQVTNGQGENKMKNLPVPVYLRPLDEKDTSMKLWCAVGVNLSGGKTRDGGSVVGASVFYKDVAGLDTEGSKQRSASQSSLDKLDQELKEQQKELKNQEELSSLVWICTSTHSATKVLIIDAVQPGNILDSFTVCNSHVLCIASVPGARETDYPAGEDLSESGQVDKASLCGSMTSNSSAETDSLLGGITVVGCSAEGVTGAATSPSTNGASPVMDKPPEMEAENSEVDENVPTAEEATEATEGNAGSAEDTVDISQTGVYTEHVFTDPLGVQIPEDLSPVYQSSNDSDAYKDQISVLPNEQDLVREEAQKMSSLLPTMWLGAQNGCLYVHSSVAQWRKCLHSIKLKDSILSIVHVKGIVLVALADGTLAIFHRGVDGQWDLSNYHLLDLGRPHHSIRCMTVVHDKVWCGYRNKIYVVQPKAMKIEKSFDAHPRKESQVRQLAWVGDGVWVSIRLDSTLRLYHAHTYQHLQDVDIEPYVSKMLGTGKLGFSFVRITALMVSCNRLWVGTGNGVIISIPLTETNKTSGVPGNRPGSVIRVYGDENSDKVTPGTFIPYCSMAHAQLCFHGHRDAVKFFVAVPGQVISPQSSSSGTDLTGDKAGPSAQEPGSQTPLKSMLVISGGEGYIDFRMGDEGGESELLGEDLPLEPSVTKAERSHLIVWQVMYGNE

JIP3-GFP (full length) [4] = target: T2, JIP3-GFP (full length); test: co-IP; HEK293 cells co-expressing Flag-LRRK2 (R1441G or Y1699C), HA-Rab and GFP-tagged effector, no MLi-2; GFP fusion precipitated with GFP binder Sepharose, 1 h, washed in 50 mM Tris-HCl pH 7.5, 150 mM NaCl; immunoblot
JIP4-GFP (full length) [5] = target: T3, JIP4-GFP (full length); test: as above
[6] = target: T4, His6-tagged RILPL2 (full length, 1-211) (Homo sapiens (Human), UniProt Q969X0); test: pull-down; His6-RILPL2 (full length) bait on Ni2+-agarose, untagged Rab8a species as prey, 10 μM each; 20 mM Tris pH 8.0, 300 mM NaCl, 20 mM imidazole, 5 mM MgCl2, 10 mM β-mercaptoethanol; Coomassie stain; both purified
T4 chain: T1 sequence

[7] = target: His6-tagged MyoVa GTD (1462-1853) (UniProt Q99104); test: pull-down; control: His6-tagged MyoVa GTD bait on Ni2+-agarose, pRab8a or Rab8a prey, no RILPL2; both purified
[8] = target: T4, His6-tagged RILPL2 (full length, 1-211); test: pull-down; His6-RILPL2 (full length) bait on Ni2+-agarose, (p)Rab8a prey, in the presence of MyoVa(GTD); bait and prey 2.5 μM; 20 mM Tris pH 8.0, 300 mM NaCl, 20 mM imidazole, 5 mM MgCl2; Coomassie stain, densitometry; both purified

Substance: HA-Rab8a K58A, LRRK2-phosphorylated (from UniProt P61006 1-207)
- binding [1]: binds

Substance: HA-Rab8a T4A, LRRK2-phosphorylated (from UniProt P61006 1-207)
- binding [1]: binds

Substance: HA-Rab8a WT from cells treated with the LRRK2 inhibitor MLi-2 (dephosphorylated) (from UniProt P61006 1-207)
- binding (JIP3-GFP (full length) [2]): binds weakly
- binding (JIP4-GFP (full length) [3]): binds weakly

Substance: HA-Rab8a[Q67L], LRRK2-phosphorylated (from UniProt P61006 1-207)
- binding [1]: binds

Substance: HA-Rab8a[T22N] (from UniProt P61006 1-207)
- binding [1]: no binding

Substance: HA-Rab10 WT, LRRK2-phosphorylated (pT73) (from UniProt P61026 1-200)
- binding (JIP3-GFP (full length) [4]): binds
- binding (JIP4-GFP (full length) [5]): binds

Substance: T72 phosphorylated Rab8a(GDP), wild type, residues 1-181 (from UniProt P61006 1-181) (domain or fragment)
- binding [6]: no binding (tested: 10 μM)

Substance: T72 phosphorylated Rab8a(GTP), residues 1-181, Q67L (from UniProt P61006 1-181) (domain or fragment)
- binding [7]: no binding

Substance: globular tail domain (GTD) of myosin Va (1462-1853) (from UniProt Q99104 1462-1853) (domain or fragment)
- binding [8]: binds

Substance: non-phosphorylated Rab8a(GTP), residues 1-181, Q67L (from UniProt P61006 1-181) (domain or fragment)
- binding [7]: no binding
